Measured values as given in ChEMBL document CHEMBL4888484, “Replenishing the malaria drug discovery pipeline: Screening and hit evaluation of the MMV Hit Generation Library 1 (HGL1) against asexual blood stage Plasmodium falciparum ,using a nano luciferase reporter read-out” (2022).
In all, about 150,000 compounds went through this assay and about 540 (0.36%) showed an effect of 50% or more. Some of the results follow.

tested on: Plasmodium falciparum; assay: Primary screen in NF54 nanoGlo assay, in single point, at 2uM, 72h; a lower Z score goes with more inhibition; format: functional, Erythrocyte; conditions: timepoint 72 hour

For N#Cc1ccccc1C(=O)N1CCN(C2CCCCC2)C[C@H](O)C1, which “% Inhibition” value is on record?
The value was -20%.

And the Z score?
Its Z score is 1.76.

For Cc1nnsc1C(=O)N(C)C1CCN(Cc2ccccc2)CC1C (stereo unspecified), which “% Inhibition” value is on record?
The value was 2%.

What about the Z score of the same compound?
The Z score was -0.26.

With COc1ccnc(C(=O)Nc2cccc(-c3cnc[nH]3)c2)c1 as the compound, how does the “% Inhibition” value read?
Its value is -4%.

What about the Z score of the same compound?
Its Z score is 0.45.

For COC(=O)[C@@H]1CS(=O)(=O)CCN1C(=O)c1ccc(Cl)cc1, which “% Inhibition” value is on record?
Its value is -22%.

And the Z score?
The Z score was 2.24.

CN(c1nccnc1C#N)[C@H]1CCCN(Cc2ccccc2)C1 was tested. Which “% Inhibition” value did it give?
The value was 0%.

And the Z score?
Its Z score is 0.03.

Which results are given for CCc1nc(C2CC2)nc(N2CCN(C(=O)c3ccco3)CC2)c1Cc1cc(C)ccc1C?
% Inhibition: 5%; Z score: -0.81

With O=C(NCc1nc2c(s1)CCCC2)c1cn(C[C@H]2CCCO2)nn1 as the compound, how does the “% Inhibition” value read?
Its value is -10%.

What about the Z score of the same compound?
Its Z score is 1.33.

For COc1ccccc1C(C)CNC(=O)NC1CCC(N(C)C)C1 (stereo unspecified), which “% Inhibition” value is on record?
The value was -12%.

And the Z score?
The Z score was 1.6.

Which “% Inhibition” value does the source give for Cc1cc(C)n(C)c(=O)c1C(=O)N1CC[C@@](O)(C2CCOCC2)[C@H](C)C1 here?
Its value is -23%.

And the Z score?
The Z score was 2.7.

How did the “% Inhibition” value turn out when O=C1CCc2cc(Cl)c(S(=O)(=O)N3CCC(C(=O)Nc4ccc(Cl)cn4)CC3)cc2N1 was run?
The value was -3%.

What about the Z score of the same compound?
Its Z score is 0.54.

How did the “% Inhibition” value turn out when CCCc1nn(-c2cccc(F)c2)c(N2CCN(CC)CC2)c1CN(CCC)Cc1ccccc1F was run?
The value was -18%.

And the Z score?
Its Z score is 1.55.

C[C@@H](CCNC(=O)OC(C)(C)C)NC(=O)c1cccnc1 was tested. Which “% Inhibition” value did it give?
Its value is 13%.

And the Z score?
Its Z score is -1.57.

With C[C@@H](CNC(=O)Cc1cccc(O)c1)COCc1ccccc1 as the compound, how does the “% Inhibition” value read?
The value was 10%.

What about the Z score of the same compound?
Its Z score is -1.91.

With CCOc1c(Cl)cccc1Cc1nc(CC(=O)NC)no1 as the compound, how does the “% Inhibition” value read?
The value was -9%.

What about the Z score of the same compound?
The Z score was 1.07.

Which “% Inhibition” value does the source give for Cn1nnc2c(=O)n(Cc3ccccn3)cnc21 here?
The value was -1%.

And the Z score?
Its Z score is 0.22.

With CCc1noc(C)c1C(=O)N(Cc1ccccc1)c1c(N)n(CCOC)c(=O)[nH]c1=O as the compound, how does the “% Inhibition” value read?
Its value is -3%.

What about the Z score of the same compound?
Its Z score is 0.3.

How did the “% Inhibition” value turn out when CN(C)c1cccc(Oc2nnnn2[C@H]2CO[C@H]3[C@@H]2OC[C@@H]3NS(=O)(=O)c2cccs2)c1 was run?
Its value is -3%.

What about the Z score of the same compound?
The Z score was 0.41.

How did the “% Inhibition” value turn out when COc1ccc(CNS(=O)(=O)c2cc3n(c2)CCCN(C(C)C)C3=O)cc1OC was run?
The value was -18%.

And the Z score?
Its Z score is 2.06.

Which results are given for CC1(C)COCCN1CCNC(=O)N1CC=C(c2ccccc2F)CC1?
% Inhibition: -8%; Z score: 1.1

What does the source list for Cc1cc(Cl)ccc1-c1cccc(C(=O)NCC2(O)CCN(C)CC2)c1?
% Inhibition: -7%; Z score: 0.86

CCn1nc(CO)c2c1CCN(C(=O)C[C@H]1CCOC1)C2 was tested. Which “% Inhibition” value did it give?
The value was -3%.

What about the Z score of the same compound?
The Z score was 0.6.

Which results are given for O=C(O)C[C@@H]1N=C(O)N(Cc2ccccc2)C1=O?
% Inhibition: 7%; Z score: -0.95

Which results are given for CC1CN(C(=O)Nc2ccnn2C2CCS(=O)(=O)C2)c2ccccc21 (stereo unspecified)?
% Inhibition: 6%; Z score: -1.01

What does the source list for COc1ncnc2c1CN(C(=O)NC1CC1C1CCCCC1)CC2 (stereo unspecified)?
% Inhibition: -17%; Z score: 2.21

Which “% Inhibition” value does the source give for Cc1occc1CNC(=O)c1ccc(CNC(=O)OC(C)(C)C)o1 here?
The value was -8%.

And the Z score?
The Z score was 1.46.

With Cc1nnsc1C(=O)NCc1cnc(CC(C)C)s1 as the compound, how does the “% Inhibition” value read?
Its value is -5%.

What about the Z score of the same compound?
The Z score was 0.74.

For CCCc1nc(CN2CC(n3cccn3)C2)cs1, which “% Inhibition” value is on record?
The value was 8%.

What about the Z score of the same compound?
The Z score was -1.58.

Which results are given for CC(=O)c1cccc(NC(=O)CN(C(C)C)C2CCOCC2)c1?
% Inhibition: -1%; Z score: 0.11

How did the “% Inhibition” value turn out when COC(=O)C[C@H]1CN(Cc2ccc(-c3ccncc3)cc2F)CCO1 was run?
The value was -7%.

What about the Z score of the same compound?
The Z score was 0.94.

O=C1C[C@@H](c2ccccc2)N(C(=O)C#Cc2ccccc2)CCN1 was tested. Which “% Inhibition” value did it give?
The value was -8%.

What about the Z score of the same compound?
Its Z score is 0.95.

For Cc1cc(Cl)cc2c(N3C[C@@H]4C(=O)NC[C@]4(C(=O)O)C3)ccnc12, which “% Inhibition” value is on record?
The value was -6%.

What about the Z score of the same compound?
The Z score was 1.26.

With CC(C)=CC1C(C(=O)N2CCC(CC(N)=O)CC2)C1(C)C (stereo unspecified) as the compound, how does the “% Inhibition” value read?
Its value is -10%.

And the Z score?
The Z score was 1.34.

With CCN(Cc1ccoc1)Cc1nnc(-c2ccc(F)cc2)o1 as the compound, how does the “% Inhibition” value read?
The value was -13%.

And the Z score?
The Z score was 1.6.

What does the source list for CCN(CCN1C(=O)NC(C)(C)C1=O)Cc1cccc(Cl)c1?
% Inhibition: -20%; Z score: 3.25

CCOC(=O)[C@H]1CCCN1Cc1nnc(-c2ccc(Cl)cc2)n1C was tested. Which “% Inhibition” value did it give?
The value was -6%.

And the Z score?
Its Z score is 0.57.

Which “% Inhibition” value does the source give for Cc1cnn(CCC(=O)N[C@@H]2COCC[C@@H]2Oc2ccc(C)nc2)c1 here?
The value was -1%.

What about the Z score of the same compound?
Its Z score is 0.12.

With O=C(C1CCCC1)N1CCN(Cc2nnn3c2CO[C@H](c2ccccc2)C3)CC1 as the compound, how does the “% Inhibition” value read?
Its value is -3%.

And the Z score?
The Z score was 0.34.

With CCN1CCN(C(=O)c2ccc(CN3CCN(C(C)C)C(=O)C3=O)cc2)CC1 as the compound, how does the “% Inhibition” value read?
The value was 2%.

And the Z score?
The Z score was -0.37.

Which results are given for COc1ccc(-n2nc(C(=O)N3CCN(c4ccccc4)CC3)c(=O)cc2OC)cc1?
% Inhibition: 32%; Z score: -0.28

What does the source list for Cc1ccccc1[C@H]1CCCN(Cc2ccnc(C(C)C)n2)C1?
% Inhibition: 2%; Z score: -0.43

How did the “% Inhibition” value turn out when CCCN(CC(=O)N1CCn2cccc2[C@H]1c1ccccc1F)C(=O)c1ccc(CC)cc1 was run?
Its value is -2%.

And the Z score?
The Z score was 0.18.

Which results are given for Cc1csc(NC(=O)Cc2cnn(-c3ccccc3)c2)n1?
% Inhibition: -3%; Z score: 0.32

With CN(Cc1ccncc1)Cc1ncccc1C(F)(F)F as the compound, how does the “% Inhibition” value read?
The value was -2%.

What about the Z score of the same compound?
Its Z score is 0.18.

What does the source list for Cc1cnc(C(=O)N(c2ccccc2)[C@H]2CCOC2)cn1?
% Inhibition: 32%; Z score: -3.58

Which “% Inhibition” value does the source give for CCN(C(=O)c1cc(S(=O)(=O)N(C)Cc2ccccc2)ccc1Cl)[C@H]1CCS(=O)(=O)C1 here?
Its value is -1%.

What about the Z score of the same compound?
The Z score was 0.08.

For CCN(C(C)=O)c1nc2ccccc2n(CC(=O)Nc2cccc(C(C)=O)c2)c1=O, which “% Inhibition” value is on record?
Its value is -6%.

What about the Z score of the same compound?
The Z score was 0.97.

Which results are given for CCc1cc(NCC2CCN(C(=O)C(C)C)CC2)nc(N(C)C)n1?
% Inhibition: 4%; Z score: -0.81

O=C(Cc1ccc(-c2ccccc2)cc1)N1CCc2nncn2CC1 was tested. Which “% Inhibition” value did it give?
The value was 7%.

And the Z score?
The Z score was -0.81.

Which results are given for CCc1ccc(CN2CCN(S(=O)(=O)c3c(N)noc3C)CC2)s1?
% Inhibition: -11%; Z score: 1.15

CCN1CCN(C(=O)Cn2nnc3ccccc3c2=O)CC1 was tested. Which “% Inhibition” value did it give?
Its value is -1%.

What about the Z score of the same compound?
Its Z score is 0.07.

Which “% Inhibition” value does the source give for c1ccc(CNCc2cc3cc4c(cc3nc2OCC2CCCCC2)OCO4)nc1 here?
The value was -6%.

What about the Z score of the same compound?
The Z score was 1.09.

Which results are given for C#CC(NC(=O)NC(COC)C1CCCO1)C(C)C (stereo unspecified)?
% Inhibition: -1%; Z score: 0.24

For C[C@H]1CCn2c(nc3cc(C(=O)NCc4ccc5c(c4)OCO5)ccc32)C1, which “% Inhibition” value is on record?
Its value is -13%.

And the Z score?
The Z score was 1.8.
